Source: PubChem BioAssay AID504339 (National Center for Advancing Translational Sciences (NCATS), 2011)
Hit rate of the full screen: of about 390,000 compounds, about 17,000 (4.4%) were called active. The shares of active, inactive and inconclusive entries below differ from those in the screen. The call rests on the fitted dose curve; in most records, active means well fitted inhibition curve with a large enough effect; inconclusive means small, poorly fitted or top-dose-only effect; inactive means no such curve, though single readings can be large or run the other way. Potencies beside an inconclusive call are fits to weak or partial responses and may not hold up. More than one record can exist for a structure, and the calls need not agree.

molecular target: Lysine-specific demethylase 4A (Homo sapiens) (UniProt O75164); test: qHTS Assay for Inhibitors of JMJD2A-Tudor Domain; settings: AlphaScreen JMJD2A-Tudor / H3K4me3 peptide binding; activity change, negative = inhibition: at 114 µM (top of the series); further: nearly all actives have a fitted effect of over 50% in size
Chain of UniProt O75164 (O75164 whole entry, looked up, the tested form may be a part): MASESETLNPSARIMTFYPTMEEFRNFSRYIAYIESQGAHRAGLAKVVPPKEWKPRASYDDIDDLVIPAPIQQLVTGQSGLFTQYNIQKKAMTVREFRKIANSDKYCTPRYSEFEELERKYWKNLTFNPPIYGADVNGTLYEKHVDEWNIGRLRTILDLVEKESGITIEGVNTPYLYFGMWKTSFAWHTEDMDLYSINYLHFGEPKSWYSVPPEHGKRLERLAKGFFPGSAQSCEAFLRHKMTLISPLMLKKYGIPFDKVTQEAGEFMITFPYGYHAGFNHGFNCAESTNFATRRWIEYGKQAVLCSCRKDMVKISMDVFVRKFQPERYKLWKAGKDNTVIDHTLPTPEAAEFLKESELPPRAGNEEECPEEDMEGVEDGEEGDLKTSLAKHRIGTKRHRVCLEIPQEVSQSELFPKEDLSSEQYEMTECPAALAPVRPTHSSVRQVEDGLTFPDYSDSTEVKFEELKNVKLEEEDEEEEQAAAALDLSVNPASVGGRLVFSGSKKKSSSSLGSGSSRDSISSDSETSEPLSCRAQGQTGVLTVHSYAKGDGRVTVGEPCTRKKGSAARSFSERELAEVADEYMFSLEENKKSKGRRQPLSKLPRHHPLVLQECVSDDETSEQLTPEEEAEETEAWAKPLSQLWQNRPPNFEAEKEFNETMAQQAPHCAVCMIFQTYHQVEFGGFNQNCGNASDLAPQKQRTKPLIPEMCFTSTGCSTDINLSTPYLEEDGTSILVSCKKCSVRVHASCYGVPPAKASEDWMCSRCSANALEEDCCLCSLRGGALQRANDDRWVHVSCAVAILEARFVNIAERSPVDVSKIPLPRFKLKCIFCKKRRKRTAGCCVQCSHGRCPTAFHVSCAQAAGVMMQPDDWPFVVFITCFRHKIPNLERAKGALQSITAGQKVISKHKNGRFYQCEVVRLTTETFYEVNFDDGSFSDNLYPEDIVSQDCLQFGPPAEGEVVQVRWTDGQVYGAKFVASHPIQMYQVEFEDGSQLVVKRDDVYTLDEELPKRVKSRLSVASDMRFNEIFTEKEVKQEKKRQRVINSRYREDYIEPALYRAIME
On the % scale 0 is the no-effect control and ±100 the full control effect; potency means the concentration at half of the fitted maximal effect; tags describe the fitted curve by direction and shape.

Potency, inconclusive:
COc1ccc2[nH]c(=O)c(-c3nnn(-c4ccc(F)cc4)n3)cc2c1 100 µM [inhibitor, single point]
COc1ccc2c(c1)-c1nc(/N=C/c3cccc(OC)c3O)sc1CC2 56.2 µM [inhibitor, partial curve, poor fit]
Fc1ccc(-c2nc3ccccn3c2NCc2ccc3c(c2)OCO3)cc1 63.1 µM [inhibitor, partial curve]
CC(C)[C@H](NS(=O)(=O)c1cccc(C(F)(F)F)c1)C(=O)OCC(=O)NC(=O)NCc1ccco1 56.2 µM [inhibitor, partial curve]
COc1ccc(N2CCN(C(=O)c3c(-c4ccccc4)noc3C)CC2)cc1 50.1 µM [inhibitor, partial curve]
CCN(CC)C(=O)CC(c1ccc(OC)cc1)c1c(OC)cc(OC)c2ccc(=O)oc12 (stereo not drawn) 79.4 µM [inhibitor, partial curve, poor fit]
COc1ccc(-c2oc(/N=C/N3CCOCC3)c(C#N)c2-c2ccc(OC)cc2)cc1 22.4 µM [inhibitor, full curve]
Fc1ccc2[nH]c3c(N4CCN(c5ccccc5)CC4)ncnc3c2c1 22.4 µM [inhibitor, full curve, poor fit]
CCOc1ccc(-c2nc(N)ncc2Oc2ccc(OC)cc2)c(O)c1 28.2 µM [inhibitor, partial curve]
O=C1c2cc(Cl)ccc2OC2(CCNCC2)C12CC(c1ccc(Cl)cc1)=NO2 (stereo not drawn) 50.1 µM [inhibitor, partial curve]
CN(C)/N=C/c1cc(Cl)cc([N+](=O)[O-])c1O 56.2 µM [inhibitor, partial curve]
CCOC(=O)c1cc2c(=O)n3ccccc3nc2n(Cc2ccco2)c1=NC(=O)c1ccc(OC)cc1OC 22.4 µM [inhibitor, full curve]
O=[N+]([O-])c1cc(S(=O)(=O)C(F)(F)F)ccc1NCC1CCCO1 (stereo not drawn) 79.4 µM [inhibitor, partial curve]
COc1ccc2c(c1)[C@H]1[C@H](CO2)[C@H](c2ccccc2)[C@]2(C)C(=O)Nc3ccccc3C(=O)N12 31.6 µM [inhibitor, full curve]
CCc1ccc(-c2nc(CN3CCC(C(=O)N4CCN(c5ccccc5)CC4)CC3)c(C)o2)cc1 44.7 µM [inhibitor, partial curve]
COC(=O)c1cc2oc3ccccc3c2n1CC(=O)Nc1ccc(N(C)C)cc1 35.5 µM [inhibitor, partial curve]
CCC(CO)Oc1cc(NCc2ccccc2)c2ncn(C(C)C)c2c1 (stereo not drawn) 39.8 µM [inhibitor, single point]
COc1ccc(CNc2nc3ccccc3n2Cc2ccc(Cl)cc2)cc1OC 56.2 µM [inhibitor, partial curve]
CCOC(=O)c1ccc(NC(=O)CN(c2ccc(C)cc2)S(=O)(=O)c2c(C)nn(C)c2C)cc1 70.8 µM [inhibitor, partial curve, poor fit]
COC(=O)c1cc(C)nc2c1c(=O)nc(SCc1c(C)cc(C)cc1C)n2C1CC1 63.1 µM [inhibitor, partial curve, poor fit]
COc1ccc(NC(=O)c2[nH]c(C)c(C(C)=O)c2C)cc1S(=O)(=O)Nc1ccc(Br)cc1 8.91 µM [inhibitor, full curve, poor fit]
CCOc1ccc(C(=O)NC(=S)Nc2ccc(N3CCC(C)CC3)cc2)cc1[N+](=O)[O-] 79.4 µM [inhibitor, partial curve]
O=C(Oc1ccc(Br)cc1C(=S)N1CCOCC1)c1ccc([N+](=O)[O-])cc1[N+](=O)[O-] 31.6 µM [inhibitor, partial curve]
O=[N+]([O-])/C(C(Cl)=C(Cl)Cl)=C(/Sc1ccccc1)N1CCCCC1 31.6 µM [inhibitor, partial curve]
Cn1c(C(=O)N2CCN(c3cccc(C(F)(F)F)c3)CC2)cc2sccc21 28.2 µM [inhibitor, full curve]
COc1ccc(-c2sc3ccc(N4CCOCC4)cc3c2C#CCCO)cc1 50.1 µM [inhibitor, partial curve]
CSCCC(NS(=O)(=O)c1ccc2c(c1)Cc1cc(S(=O)(=O)NC(CCSC)C(=O)O)ccc1-2)C(=O)O (stereo not drawn) 31.6 µM [inhibitor, single point]
Brc1cccc(CNCCCN2CCOCC2)c1 35.5 µM [inhibitor, single point]
O=S(=O)(Nc1cccnc1)c1ccc(Cl)c(C(F)(F)F)c1 112 µM [inhibitor, partial curve, poor fit]
CCOc1ccc(CCNC(=O)c2nnn(CC(=O)Nc3c(C)cc(C)cc3C)c2N)cc1OCC 100 µM [inhibitor, single point]
Fc1ccc2[nH]c3c(c2c1)CN(C(=S)NCc1ccccc1)CC3 44.7 µM [inhibitor, partial curve]
C#CCOCCOCCOCCNc1nc(N2CCN(C(=O)[C@H](CCCCN)n3cc(CCCC)nn3)CC2)nc(N2CCN(C(=O)[C@H](CCCCN)n3cc(CCCC)nn3)CC2)n1 8.91 µM [inhibitor, partial curve]
O=c1nc(N(c2ccccc2)c2ccccc2)[nH]c(=O)[nH]1 89.1 µM [inhibitor, partial curve]
Cn1c(CCN2CCCCCC2)nc2cc(NC(=O)Nc3ccccc3)ccc21 35.5 µM [inhibitor, full curve]

Potency, active:
OC(COc1cccc2ccccc12)CN1CCN(c2ccccc2)CC1 (stereo not drawn) 50.1 µM
C#CCOc1ccc(Cl)cc1/C=C1/C(=O)ON=C1C 35.5 µM
COc1cc(C(=O)Oc2c(CN3CCOCC3)cc(Cl)c3cccnc23)cc(OC)c1OC 56.2 µM
Cc1ccc(NC(=S)NNC(=O)c2ccc(N3CCOCC3)c([N+](=O)[O-])c2)cc1Cl 25.1 µM
Cc1ccc(O)c(N=Cc2cc(Cc3ccccc3)cc([N+](=O)[O-])c2O)c1 39.8 µM
CCOc1ccc(NC(=O)c2cc3ccccc3cc2O)cc1 79.4 µM
Fc1ccccc1-c1ccc(-c2nc3ccc(Cl)cn3c2Nc2ccc(Cl)cc2)o1 44.7 µM
O=C(Cc1ccc(Cl)cc1)NNC(=O)c1cnccn1 50.1 µM
CCOC(=O)C1CCN(C(=O)CC(C)c2ccccc2)CC1 (stereo not drawn) 28.2 µM
CCC(=O)Nc1nnc(S(=O)(=O)N2CCCCCC2)s1 11.2 µM
COC(=O)C(CC(=O)O)NCc1ccco1 (stereo not drawn) 20 µM
CC(=O)C1=C(C)NC(SCc2cccc3ccccc23)=C(C#N)C1c1ccco1 (stereo not drawn) 10 µM
O=[N+]([O-])c1cc2c(c3cccnc13)COCO2 25.1 µM
COc1cccc(CNS(=O)(=O)c2ccccc2Br)c1OC 79.4 µM
CN=c1scc(-c2cccs2)n1/N=C/c1ccc(O)c(O)c1O 25.1 µM
C=C(C)C(=O)Nc1cccc(C2=NOC3(C2)C[C@H](C(N)=O)N(C(=O)/C=C/C)C3)c1 (stereo partly drawn) 8.91 µM
Cc1cccc(C)c1NC(=O)C(c1ccccc1)N1CCC1=O (stereo not drawn) 39.8 µM
OC1CC(c2ccco2)NC2(CCCCC2)C1 (stereo not drawn) 7.94 µM
c1ccc(-n2cccc2CNC2CCCCC2)cc1 3.55 µM
O=S(=O)(c1ccc(=S)[nH]c1)N1CCOCC1 11.2 µM
COc1ccc(-n2c(=S)[nH]c3ccccc32)cc1 39.8 µM

Potency, inactive:
c1csc(-c2nc(NCC3CCCO3)c3ccccc3n2)c1 (stereo not drawn)
COc1ccc(C2CC(=O)Oc3c2c(=O)n(C)c2ccccc32)c(OC)c1OC (stereo not drawn)

Activity change, negative = inhibition, inactive:
CCc1cccc(NC(c2ccccc2)c2nnc(-c3ccccc3F)o2)c1 (stereo not drawn) 4.79%
O=C(OCc1ccccc1)c1cccnc1Cl 24.7%
CCOc1ccc(NC(=O)CNC(=O)c2nn(-c3ccc(OC)c(OC)c3)c(=O)c3ccccc23)cc1 -6.69%
COc1cc(/C=C2\N=C3CCCCCN3C2=O)ccc1O -18.5%
CC(=O)NC(CC(=O)NC1CCCc2ccccc21)c1ccccc1 (stereo not drawn) -19.5%
Cc1cc(OCc2cc(C(=O)N(C)C3CCOC3)no2)cc(C)c1Cl (stereo not drawn) -2.07%
CC(C)CNS(=O)(=O)c1ccc(CCC(=O)NCc2ccco2)cc1 -15.8%
COc1ccc(NC(=O)C(NS(=O)(=O)c2cccc3nsnc23)c2ccccc2)cc1 (stereo not drawn) -27.7%
O=C(NC(=S)Nc1cccnc1Cl)c1ccc(F)cc1 2.82%
COc1ccc(C(=O)CSc2nnc(-c3cccs3)n2-c2ccccc2)cc1 -33.6%
CC(COc1ccccc1)N1CCC(CO)(Cc2ccccc2)CC1 (stereo not drawn) -17.9%
CC(C)(C)c1ccc(OCCC(=O)Nc2cccc(S(=O)(=O)NC3=NCCCCC3)c2)cc1 -16.3%
CC1=C(C(=O)Nc2ccccn2)C(c2ccc(F)cc2)n2ncnc2N1 (stereo not drawn) -16.3%
COc1ccc(C2c3c(oc4ccccc4c3=O)C(=O)N2c2nc(C)c(C)s2)cc1 (stereo not drawn) -13.4%
C/C(=N\NC(=O)c1ccc(-c2ccccc2)cc1)c1ccco1 -19.4%
Cc1ccc(N(C(=O)Cn2nnc(-c3ccc(C)o3)n2)C(C(=O)NC2CCCC2)c2ccncc2)cc1 (stereo not drawn) 4.23%
